# Laboratory results: PubChem BioAssay AID1030 (National Center for Advancing Translational Sciences (NCATS), 2008)
# The whole screen tested about 220,000 compounds, of which about 16,000 (7.3%) were called active. The shares of active, inactive and inconclusive entries below differ from those in the screen. The call rests on the fitted dose curve; in most records, active means well fitted inhibition curve with a large enough effect (not every such curve was filed as active); inconclusive means small, poorly fitted or top-dose-only effect, or another doubt; inactive means no such curve, though single readings can be large or run the other way. No potency is given beside an inconclusive call; the fits are too rough.
# Target: Aldehyde dehydrogenase 1A1 (Homo sapiens) (UniProt P00352)
# Experiment: qHTS Assay for Inhibitors of Aldehyde Dehydrogenase 1 (ALDH1A1);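 on activity, negative = inhibition: plate controls were no enzyme wells and a reference inhibitor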
# Conditions: Purified ALDH1A1, NADH fluorescence, propionaldehyde substrate; series mostly up to 75.3 µM; activity, negative = inhibition: at the top concentration
# Potency means the concentration at half of the fitted maximal effect; tags describe the fitted curve by direction and shape.
# Chain of UniProt P00352 (P00352 whole entry, looked up): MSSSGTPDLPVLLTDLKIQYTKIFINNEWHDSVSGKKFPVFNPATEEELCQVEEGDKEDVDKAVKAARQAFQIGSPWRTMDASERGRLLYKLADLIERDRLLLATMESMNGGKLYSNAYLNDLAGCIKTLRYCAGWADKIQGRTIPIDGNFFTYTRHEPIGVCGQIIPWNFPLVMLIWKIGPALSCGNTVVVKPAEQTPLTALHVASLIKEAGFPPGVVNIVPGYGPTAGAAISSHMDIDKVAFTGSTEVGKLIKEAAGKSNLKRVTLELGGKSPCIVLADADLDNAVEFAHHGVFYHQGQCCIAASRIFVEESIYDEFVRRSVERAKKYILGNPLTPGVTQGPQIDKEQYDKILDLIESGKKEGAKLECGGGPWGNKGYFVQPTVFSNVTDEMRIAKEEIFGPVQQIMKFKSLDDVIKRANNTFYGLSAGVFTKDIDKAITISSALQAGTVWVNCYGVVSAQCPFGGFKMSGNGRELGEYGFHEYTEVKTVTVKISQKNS
Compound,Potency,"activity, negative = inhibition"
CC(C)OC(=O)c1cc2c(ccn2C)n1CC(=O)N(Cc1ccccc1)c1ccccc1,"inconclusive [inhibitor, single point]",–
CCOC(=O)C1=C(c2ccccc2)N=C2SCC(=O)N2C1c1ccc2c(c1)OCO2 (configuration not stated),active: 12.6 µM,–
c1ccc(-c2oc3ncnc(NCCCn4ccnc4)c3c2-c2ccccc2)cc1,"inconclusive [inhibitor, partial curve]",–
CCOc1cc(C=O)cc(Cl)c1OCC(N)=O,active: 7.08 µM,–
C/C(CC(=O)NC(C)(C)C)=N\NC(N)=S,"inconclusive [inhibitor, single point]",–
COc1ccc(C2CC(c3ccc(C)o3)=NN2C(C)=O)cc1 (configuration not stated),"inconclusive [inhibitor, single point]",–
COc1cccc(-c2cncnc2NCc2cccnc2)c1,–,inactive: 15.5%
CC(OC(=O)c1nsc(Cl)c1Cl)C(=O)NCc1cccs1 (configuration not stated),–,inactive: 1.94%
COc1ccc2[nH]c(C)c(C(=O)CN3CCOCC3)c2c1,"inconclusive [inhibitor, single point]",–
NC(=O)c1ccccc1NC(=O)Nc1cccc(Cl)c1,–,inactive: -2.87%
CCOc1ccc(C(c2c(C)[nH][nH]c2=O)c2c(C)[nH][nH]c2=O)cc1OCC,"inconclusive [inhibitor, single point]",–
CCn1c(CC(=O)Nc2cccc(OC)c2)nnc1SCC(=O)N1CCN(c2ccccc2)CC1,–,inactive: 5.25%
CCN(CC)CCCN(Cc1cc2cc(OC)c(OC)cc2[nH]c1=O)C(=O)Nc1ccccc1,"inconclusive [inhibitor, single point]",–
CCOc1ccccc1NC(=O)Nc1cc(S(=O)(=O)N(C)C)ccc1C,–,inactive: -2.91%
Cc1ccc(CNc2ncnc(N)c2[N+](=O)[O-])cc1,–,inactive: 18.4%
O=C1OC(c2ccc(Cl)cc2)=N/C1=C\C=C\c1ccco1,"inconclusive [inhibitor, partial curve]",–
CC1(OC(=O)CCc2ccccc2)C(=O)C=C2C=C(c3ccc(C#N)cc3)N(C3CCCCC3)C=C2C1=O (configuration not stated),–,inactive: 4.29% [at 13.5 µM]
Cc1ccc(-c2nc3ccc([N+](=O)[O-])cc3[nH]2)cc1,"inconclusive [inhibitor, single point]",–
COC(=O)CC1Oc2ccc(C)cc2NC1=O (configuration not stated),–,inactive: 13.7%
COc1cc2c(cc1OC)C1=NC(=O)CN1C(SCc1ccc(C)cc1)=N2,"inconclusive [inhibitor, partial curve]",–
S=c1[nH]nc(COc2ccc(Cl)cc2)o1,active: 3.55 µM,–
Cc1ccc2cc(CN(C)S(C)(=O)=O)c(=O)[nH]c2c1,"inconclusive [inhibitor, single point]",–
O=C(C1CCN(Cc2ccc(Cl)cc2)CC1)N1CCN(C(c2ccccc2)c2ccccc2)CC1,"inconclusive [inhibitor, single point]",–
O=C(COc1ccccc1)NNc1nc2c(F)cc(F)cc2s1,–,inactive: 13.2%

Compound,Potency,"activity, negative = inhibition"
COc1ccc(C(=O)C2CCCN(Cc3c(C)[nH]c4ccccc34)C2)c(OC)c1 (configuration not stated),active: 25.1 µM,–
Cc1cc(C(=O)CSc2n[nH]c(N)n2)c(C)n1-c1ccc2c(c1)OCO2,–,inactive: 0.0305%
O=C(COC(=O)c1cc[n+]([O-])cc1)Nc1ccc2c(c1)OCCO2,active: 14.1 µM,–
Cc1c(Cl)c(-c2n[nH]c(=S)n2Cc2ccco2)nn1C,"inconclusive [inhibitor, single point]",–
COc1ccc(CCNc2cc(C)nc3c(-c4ccccc4)c(C)nn23)cc1OC,"inconclusive [inhibitor, single point]",–
CCCOc1ccc(C(=O)N2CCCc3ccccc32)cc1,active: 6.31 µM,–
CC1=CC(=C(C#N)c2nc3ccccc3s2)C=C(C)N1CC1CCCO1 (configuration not stated),"inconclusive [inhibitor, single point]",–
COc1ccc(S(=O)(=O)N2Cc3ccccc3CC2C(=O)Nc2nccs2)cc1 (configuration not stated),active: 5.01 µM,–
O=C(COC(=O)CCCN1C(=O)c2cccc3cccc(c23)C1=O)Nc1cccc(C(F)(F)F)c1,"inconclusive [inhibitor, single point]",–
O=c1[nH]c(-c2ccc(Cl)cc2)cs1,"inconclusive [inhibitor, single point]",–
CCN(CC)c1ccc2c(C)c(Cl)c(=O)oc2c1,"inconclusive [inhibitor, partial curve, poor fit]",–
O=C1Nc2ccc(S(=O)(=O)NCCC3=CCCCC3)c3cccc1c23,"inconclusive [inhibitor, partial curve]",–
Oc1cccc2c(NC(=S)Nc3ccc(SC(F)F)cc3)cccc12,"inconclusive [inhibitor, partial curve]",–
CC(O)c1nc2ccccc2n1CC(=O)N1CCN(c2ccccc2)CC1 (configuration not stated),"inconclusive [inhibitor, single point]",–
CC1SC(=Nc2ccccc2)N(S(=O)(=O)c2ccccc2)C1=O (configuration not stated),"inconclusive [inhibitor, full curve]",–
CC(C)c1csc(CN2CCN(CCc3ccccc3)C(CCO)C2)n1 (configuration not stated),"inconclusive [inhibitor, single point]",–
O=C(NC(NNc1ccc([N+](=O)[O-])cc1)(C(F)(F)F)C(F)(F)F)c1ccccc1Cl,active: 14.1 µM,–
Cc1ccc(NC(=O)COC(=O)CCc2ccc(S(=O)(=O)N3CCOCC3)cc2)c(C)c1,–,inactive: 11.8%
COCCn1cnc2c1c(=O)n(CC(=O)OCC(=O)NCCCc1ccccc1)c(=O)n2Cc1ccccc1,"inconclusive [inhibitor, single point]",–
Cc1noc(C)c1CSc1nc2ccccc2n1CCc1ccccc1,active: 28.2 µM,–
O=C(NNC(=O)C(c1ccccc1)c1ccccc1)c1cccs1,–,inactive: -7.4%
Cn1cccc1C(=O)N1CCC[C@@]2(CCN(c3ncccn3)C2)C1,–,inactive: -12.9%
Cc1ccc(N(NC(=O)C(O)(c2ccccc2)c2ccccc2)C(=O)CCl)cc1,"inconclusive [inhibitor, single point]",–
C[C@@H](C(=O)Nc1ccc2ccccc2c1)[C@H]1C[C@]1(C)[C@H](NS(=O)(=O)c1ccc2ccccc2c1)c1ccccc1,–,inactive: -3.37%

Compound,Potency,"activity, negative = inhibition"
CCOC(=O)c1cc(NC(=O)c2ccc(Cl)cc2)c(=O)oc1-c1ccccc1,"inconclusive [inhibitor, single point]",–
O=C(/C=C/c1ccco1)Nc1ccc(CN2CCOCC2)cc1,"inconclusive [inhibitor, single point]",–
NS(=O)(=O)c1ccc(NC(=S)NCc2ccc3c(c2)OCO3)cc1,active: 22.4 µM,–
Cc1ccc(C)c(-n2c(SCC(=O)NC(C(=O)O)C(C)C)nnc2-c2cccc(Cl)c2)c1 (configuration not stated),–,inactive: -8.3%
Cc1nn(-c2ccccc2)c2c1C1(C(=O)N(C)c3ccccc31)C(C#N)=C(N)O2 (configuration not stated),"inconclusive [inhibitor, partial curve]",–
COc1ccc(C(C#N)N2N=C(C)CC2(C)C)cc1OC (configuration not stated),"inconclusive [inhibitor, single point]",–
CN(C)c1ncc2nc(-c3cn(C)c4ccccc34)c(=O)n(C[C@H]3CCCO3)c2n1,–,inactive: -3.39%
Cc1cc(NS(=O)(=O)c2ccc(Nc3nc(-c4sc(C)nc4C)cs3)cc2)no1,"inconclusive [inhibitor, partial curve, poor fit]",–
C[N+](C)(C)CC(=O)N/N=C\c1ccncc1,–,inactive: -4.24% [at 13.5 µM]
COc1ccc(Nc2nc(-c3ccccc3)c(C(=O)Nc3cccnc3)s2)cc1,"inconclusive [inhibitor, partial curve]",–
CC1=C(C(=O)OC2CCCCCCC2)C(c2ccc(O)cc2)NC(=O)N1 (configuration not stated),"inconclusive [inhibitor, single point]",–
OCc1cc([C@@H](O)CNCCCCCCOCCCCc2ccccc2)ccc1O,–,inactive: -3.22%
COc1ccccc1OS(=O)(=O)c1ccc(NC(C)=O)cc1,"inconclusive [inhibitor, single point]",–
CC1(C)Cc2c(c(N3CCOCC3)nc3sc(C#N)c(N)c23)CS1,"inconclusive [inhibitor, single point]",–
Cc1onc(-c2c(Cl)cccc2Cl)c1COC(=O)c1ccc(Cl)cc1[N+](=O)[O-],–,inactive: -5.57%
Cc1cc(=O)oc2ccc(OCC(=O)N(Cc3ccc(F)cc3)Cc3ccco3)cc12,"inconclusive [inhibitor, partial curve]",–
CCCc1cc(NC(=O)CCl)n(-c2ccccc2)n1,active: 0.891 µM,–
CCCCn1c(=S)[nH]c2cc(S(=O)(=O)N3CCCCC3)ccc21,"inconclusive [inhibitor, single point]",–
O=C(COC(=O)c1ccc2c(c1[N+](=O)[O-])C(=O)c1ccccc1C2=O)NC1CC1,"inconclusive [inhibitor, full curve, poor fit]",–
C/C(O)=C(\C#N)c1nnc2n1CCCCC2,"inconclusive [inhibitor, single point]",–
Cn1nnnc1SCc1nnc(-c2ccccc2Br)o1,"inconclusive [inhibitor, partial curve]",–
Cc1cc2cc(C)c(NCCNC(=O)c3ccccc3Cl)nc2cc1C,"inconclusive [inhibitor, single point]",–
COc1ccccc1N1CSC2=C(C#N)C(c3ccc(SC)cc3)CC(=O)N2C1 (configuration not stated),active: 8.91 µM,–
CCc1ccc2nc(-c3cccc(C)c3)nc(SCC(=O)NCC3CCCO3)c2c1 (configuration not stated),–,inactive: 8.02%
